# Assay results as given in the supplement of paper PMC4604168 (melanoma cell lines).
# This is one part of the list. Many values rest on one well or one pass, so single values are uncertain.
# Columns and labels:
# Assay in all cases: cell count relative to DMSO control; melanoma cells; higher = more viable cells
# Conditions in all cases: library dose: standard library concentration; 72 h
# G361 = tested on: G361
# IPC-298 = tested on: IPC-298
# IST-MEL1 = tested on: IST-MEL1
# LB2518-MEL = tested on: LB2518-MEL
# LOXIMVI = tested on: LOXIMVI
# MEL-HO = tested on: MEL-HO
# MZ2-MEL = tested on: MZ2-MEL
# MeWo = tested on: MeWo
# RPMI7951 = tested on: RPMI7951
# RVH-421 = tested on: RVH-421
# SkMel28 = tested on: SkMel28
# SkMel2 = tested on: SkMel2
# SkMel30 = tested on: SkMel30
# SkMel5 = tested on: SkMel5
# UACC257 = tested on: UACC257
# UACC62 = tested on: UACC62
# WM115 = tested on: WM115
# WM1716 = tested on: WM1716
# WM3526 = tested on: WM3526
# 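Further: cells treated in 1,536-well plates, then fixed and DAPI-stained, with nuclei counted from automated high-throughput microscope images.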
SMILES,cell count (G361),cell count (IPC-298),cell count (IST-MEL1),cell count (LB2518-MEL),cell count (LOXIMVI),cell count (MEL-HO),cell count (MZ2-MEL),cell count (MeWo),cell count (RPMI7951),cell count (RVH-421),cell count (SkMel28),cell count (SkMel2),cell count (SkMel30),cell count (SkMel5),cell count (UACC257),cell count (UACC62),cell count (WM115),cell count (WM1716),cell count (WM3526)
"CC(=O)c1c(C)c2cnc(Nc3ccc(N4CCNCC4)cn3)nc2n(C2CCCC2)c1=O [palbociclib] + COc1ccc2c(c1)CCC1C2CCC2(C)C(NCCCCCCN3C(=O)C=CC3=O)CCC12 [U73122] (first compound 0.2 µM, partner dose 2 µM)",110%,109%,97.5%,96.6%,78%,91.4%,101%,76.9%,56.8%,94%,83%,98.2%,94.7%,63.3%,101%,69.8%,95.6%,64.6%,75.5%
"CO[C@H]1C[C@@H]2CC[C@@H](C)[C@@](O)(O2)C(=O)C(=O)N2CCCC[C@H]2C(=O)O[C@H]([C@H](C)C[C@@H]2CC[C@@H](OCCO)[C@H](OC)C2)CC(=O)[C@H](C)/C=C(\C)[C@@H](O)[C@@H](OC)C(=O)[C@H](C)C[C@H](C)/C=C/C=C/C=C/1C [everolimus] + Oc1nc(-c2ccc(C(F)(F)F)cc2)nc2c1CSCC2 [XAV939] (first compound 0.1 µM, partner dose 10 µM)",64.6%,66.8%,89.5%,59.6%,87.5%,71%,78.5%,62.3%,87%,74.2%,36.2%,61%,67.2%,33.7%,68.6%,59.7%,70.1%,47.7%,77.2%
"CC(=O)c1c(C)c2cnc(Nc3ccc(N4CCNCC4)cn3)nc2n(C2CCCC2)c1=O [palbociclib] + COc1cc2ncnc(Nc3ccc(Oc4ccccc4)cc3)c2cc1OC [SrcI1] (first compound 0.2 µM, partner dose 10 µM)",35.7%,58.4%,63.9%,52.6%,109%,85.8%,67.5%,43.1%,53.5%,106%,52.6%,54.8%,76.6%,50.4%,69.9%,62.8%,48.1%,50.2%,58.1%
"CC(=O)c1c(C)c2cnc(Nc3ccc(N4CCNCC4)cn3)nc2n(C2CCCC2)c1=O [palbociclib] + O=c1cc(-c2cccc3c2Sc2ccccc2S3)oc(N2CCOCC2)c1 [KU55933] (first compound 0.2 µM, partner dose 5 µM)",44.1%,68%,62%,71.7%,105%,64.6%,58.5%,48.8%,49.7%,60.3%,38.1%,46.7%,67.1%,39.2%,74.8%,53.3%,60.9%,34.5%,44.3%
"CC(=O)O[C@@]12CO[C@@H]1C[C@H](O)[C@@]1(C)C(=O)[C@H](O)C3=C(C)[C@@H](OC(=O)[C@H](O)[C@@H](NC(=O)OC(C)(C)C)c4ccccc4)C[C@@](O)([C@@H](OC(=O)c4ccccc4)[C@H]21)C3(C)C [Docetaxel] + Oc1nc(-c2ccc(C(F)(F)F)cc2)nc2c1CSCC2 [XAV939] (first compound 0.0005 µM, partner dose 10 µM)",17.4%,45%,40.9%,53.7%,70.1%,42%,43.4%,22.1%,21.4%,57.9%,25.3%,19.9%,49.7%,30.6%,60.7%,52.4%,40.8%,33.5%,35.6%
"Nc1nc(F)nc2c1ncn2[C@@H]1O[C@H](CO)[C@@H](O)[C@@H]1O [fludarabine] + CCCCCCCCCCCC1=C(O)C(=O)C=C(O)C1=O [Embelin] (first compound 1 µM, partner dose 6 µM)",66.4%,53.1%,56.2%,75.5%,91.6%,65.2%,84.6%,93.2%,48.3%,45.7%,3.02%,1.35%,17.4%,26.1%,32.8%,67.9%,87.6%,71.5%,24.1%
"CC(=O)O[C@@]12CO[C@@H]1C[C@H](O)[C@@]1(C)C(=O)[C@H](O)C3=C(C)[C@@H](OC(=O)[C@H](O)[C@@H](NC(=O)OC(C)(C)C)c4ccccc4)C[C@@](O)([C@@H](OC(=O)c4ccccc4)[C@H]21)C3(C)C [Docetaxel] + COc1cc(N2CCC(N3CCN(C)CC3)CC2)ccc1Nc1ncc(Cl)c(Nc2ccccc2S(=O)(=O)C(C)C)n1 [NVP-TAE684] (first compound 0.0005 µM, partner dose 0.4 µM)",16.4%,40.2%,41.3%,29.8%,57.7%,48.5%,40.1%,20.6%,32.4%,47.3%,19.8%,16.8%,51.5%,28.3%,52.8%,62%,36.1%,34%,39.4%
"Nc1nc(F)nc2c1ncn2[C@@H]1O[C@H](CO)[C@@H](O)[C@@H]1O [fludarabine] + Cc1cc([N+](=O)[O-])ccc1NS(=O)(=O)c1cc(Cl)ccc1Cl [FH535] (first compound 1 µM, partner dose 5 µM)",46.7%,50.2%,48.7%,86.7%,73%,49.5%,81%,82.6%,63.7%,65.6%,9.85%,4.96%,22.1%,23.4%,50.3%,84.5%,81.1%,87.4%,32.5%
"Nc1ncn([C@H]2C[C@H](O)[C@@H](CO)O2)c(=O)n1 [decitabine] + Cc1cc([N+](=O)[O-])ccc1NS(=O)(=O)c1cc(Cl)ccc1Cl [FH535] (first compound 0.5 µM, partner dose 5 µM)",39.4%,43.2%,47.9%,71.7%,85.7%,46.1%,55.4%,63.3%,77.9%,44.4%,56.6%,76.8%,92.9%,64.2%,62.8%,69.6%,68.3%,70.1%,66.2%
"CC(=O)O[C@@]12CO[C@@H]1C[C@H](O)[C@@]1(C)C(=O)[C@H](O)C3=C(C)[C@@H](OC(=O)[C@H](O)[C@@H](NC(=O)OC(C)(C)C)c4ccccc4)C[C@@](O)([C@@H](OC(=O)c4ccccc4)[C@H]21)C3(C)C [Docetaxel] + COc1ccc(-c2ccc3c(N4CCOCC4)nc(N4C[C@@H](C)O[C@@H](C)C4)nc3n2)cc1CO [KU0063794] (first compound 0.0005 µM, partner dose 0.1 µM)",14.2%,34.3%,49.9%,30.1%,73.7%,41.5%,31.4%,26.5%,25.4%,46.4%,14.2%,13.9%,43.5%,28.8%,53.3%,46.9%,34.7%,28.1%,40.7%
"Nc1ccn([C@@H]2O[C@H](CO)[C@@H](O)C2(F)F)c(=O)n1 [gemcitabine] + Oc1nc(-c2ccc(C(F)(F)F)cc2)nc2c1CSCC2 [XAV939] (first compound 0.002 µM, partner dose 10 µM)",49.5%,50.4%,46.7%,56.2%,92.3%,64.2%,73.5%,50.1%,65%,63%,60.5%,97.1%,96.9%,69.6%,77.3%,90.2%,75.7%,57.3%,135%
"Nc1nc(F)nc2c1ncn2[C@@H]1O[C@H](CO)[C@@H](O)[C@@H]1O [fludarabine] + COc1cc2ncnc(Nc3ccc(Oc4ccccc4)cc3)c2cc1OC [SrcI1] (first compound 1 µM, partner dose 10 µM)",73.4%,68.7%,76.9%,109%,89%,102%,77.4%,70.5%,47.9%,97.8%,1.84%,2.65%,38.1%,31.1%,44.4%,83.1%,65.1%,86.5%,38.4%
"CC(=O)c1c(C)c2cnc(Nc3ccc(N4CCNCC4)cn3)nc2n(C2CCCC2)c1=O [palbociclib] + O=C1NC(=O)/C(=C/c2ccc(-c3ccc(F)cc3O)o2)S1 [AS252424] (first compound 0.2 µM, partner dose 5 µM)",58.6%,84.8%,86.5%,76.4%,86.6%,74.9%,84.6%,54.4%,85.8%,80.6%,57.2%,58.2%,60.1%,56.1%,75.1%,62.8%,49%,36.5%,47.8%
"CO[C@H]1C[C@@H]2CC[C@@H](C)[C@@](O)(O2)C(=O)C(=O)N2CCCC[C@H]2C(=O)O[C@H]([C@H](C)C[C@@H]2CC[C@@H](OCCO)[C@H](OC)C2)CC(=O)[C@H](C)/C=C(\C)[C@@H](O)[C@@H](OC)C(=O)[C@H](C)C[C@H](C)/C=C/C=C/C=C/1C [everolimus] + COc1ccc(COc2ccc(Cc3cnc(N)nc3N)cc2OC)cc1 [GW2580] (first compound 0.1 µM, partner dose 5 µM)",50.2%,80.2%,91.2%,74.6%,90.4%,82.5%,78.1%,70.9%,98.8%,84.5%,49.4%,64.2%,70%,63.3%,88%,64.9%,70.2%,78.4%,105%
"CC(=O)O[C@@]12CO[C@@H]1C[C@H](O)[C@@]1(C)C(=O)[C@H](O)C3=C(C)[C@@H](OC(=O)[C@H](O)[C@@H](NC(=O)OC(C)(C)C)c4ccccc4)C[C@@](O)([C@@H](OC(=O)c4ccccc4)[C@H]21)C3(C)C [Docetaxel] + N#Cc1c(O)c2c(-c3ccc(-c4ccccc4O)cc3)csc2[nH]c1=O [A769662] (first compound 0.0005 µM, partner dose 10 µM)",12.3%,52.9%,46.7%,53.3%,64%,45.9%,51.1%,27.9%,28.9%,56.4%,19.8%,23.4%,78%,33%,75.9%,57.8%,45.1%,36%,47.8%
